Source: PubChem BioAssay AID504333 (National Center for Advancing Translational Sciences (NCATS), 2011)
“And” between values parts separate entries of the source, which are not always exact repeats. Equal values may be shown once. Out of some 360,000 compounds screened, about 16,000 (4.4%) were called active. Inconclusive means that the source gave no clear call. Such entries were picked first, then a sample of the others. Calls come from the whole dose curve; as a rule, active = well fitted inhibition curve with a large enough effect; inconclusive = small, poorly fitted or top-dose-only effect; inactive = no such curve, though single readings can be large or run the other way. Potencies of inconclusive entries are doubtful fits and often do not repeat.

target: Bromodomain adjacent to zinc finger domain protein 2B (Homo sapiens) (UniProt Q9UIF8); assay: qHTS Assay for Inhibitors of BAZ2B; conditions: AlphaScreen BAZ2B-H3K14Ac peptide displacement; activity change, negative = inhibition: at 114 µM (top of the series); note: nearly all actives have a fitted effect of over 60% in size
Summary of the method: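 Multi-concentration screen (max 110 uM) measuring displacement of acetylated histone H3 peptide from BAZ2B by AlphaScreen, using 50 nM protein, 50 nM peptide and 10 ug/mL streptavidin donor plus Ni-chelate acceptor beads.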
% is set by controls: 0 for no effect and ±100 for the full control effect; potency is the fitted concentration of half-maximal effect; tags give direction and shape of the fitted curve.

Chain of UniProt Q9UIF8 (Q9UIF8 whole entry, looked up, the tested form may be a part): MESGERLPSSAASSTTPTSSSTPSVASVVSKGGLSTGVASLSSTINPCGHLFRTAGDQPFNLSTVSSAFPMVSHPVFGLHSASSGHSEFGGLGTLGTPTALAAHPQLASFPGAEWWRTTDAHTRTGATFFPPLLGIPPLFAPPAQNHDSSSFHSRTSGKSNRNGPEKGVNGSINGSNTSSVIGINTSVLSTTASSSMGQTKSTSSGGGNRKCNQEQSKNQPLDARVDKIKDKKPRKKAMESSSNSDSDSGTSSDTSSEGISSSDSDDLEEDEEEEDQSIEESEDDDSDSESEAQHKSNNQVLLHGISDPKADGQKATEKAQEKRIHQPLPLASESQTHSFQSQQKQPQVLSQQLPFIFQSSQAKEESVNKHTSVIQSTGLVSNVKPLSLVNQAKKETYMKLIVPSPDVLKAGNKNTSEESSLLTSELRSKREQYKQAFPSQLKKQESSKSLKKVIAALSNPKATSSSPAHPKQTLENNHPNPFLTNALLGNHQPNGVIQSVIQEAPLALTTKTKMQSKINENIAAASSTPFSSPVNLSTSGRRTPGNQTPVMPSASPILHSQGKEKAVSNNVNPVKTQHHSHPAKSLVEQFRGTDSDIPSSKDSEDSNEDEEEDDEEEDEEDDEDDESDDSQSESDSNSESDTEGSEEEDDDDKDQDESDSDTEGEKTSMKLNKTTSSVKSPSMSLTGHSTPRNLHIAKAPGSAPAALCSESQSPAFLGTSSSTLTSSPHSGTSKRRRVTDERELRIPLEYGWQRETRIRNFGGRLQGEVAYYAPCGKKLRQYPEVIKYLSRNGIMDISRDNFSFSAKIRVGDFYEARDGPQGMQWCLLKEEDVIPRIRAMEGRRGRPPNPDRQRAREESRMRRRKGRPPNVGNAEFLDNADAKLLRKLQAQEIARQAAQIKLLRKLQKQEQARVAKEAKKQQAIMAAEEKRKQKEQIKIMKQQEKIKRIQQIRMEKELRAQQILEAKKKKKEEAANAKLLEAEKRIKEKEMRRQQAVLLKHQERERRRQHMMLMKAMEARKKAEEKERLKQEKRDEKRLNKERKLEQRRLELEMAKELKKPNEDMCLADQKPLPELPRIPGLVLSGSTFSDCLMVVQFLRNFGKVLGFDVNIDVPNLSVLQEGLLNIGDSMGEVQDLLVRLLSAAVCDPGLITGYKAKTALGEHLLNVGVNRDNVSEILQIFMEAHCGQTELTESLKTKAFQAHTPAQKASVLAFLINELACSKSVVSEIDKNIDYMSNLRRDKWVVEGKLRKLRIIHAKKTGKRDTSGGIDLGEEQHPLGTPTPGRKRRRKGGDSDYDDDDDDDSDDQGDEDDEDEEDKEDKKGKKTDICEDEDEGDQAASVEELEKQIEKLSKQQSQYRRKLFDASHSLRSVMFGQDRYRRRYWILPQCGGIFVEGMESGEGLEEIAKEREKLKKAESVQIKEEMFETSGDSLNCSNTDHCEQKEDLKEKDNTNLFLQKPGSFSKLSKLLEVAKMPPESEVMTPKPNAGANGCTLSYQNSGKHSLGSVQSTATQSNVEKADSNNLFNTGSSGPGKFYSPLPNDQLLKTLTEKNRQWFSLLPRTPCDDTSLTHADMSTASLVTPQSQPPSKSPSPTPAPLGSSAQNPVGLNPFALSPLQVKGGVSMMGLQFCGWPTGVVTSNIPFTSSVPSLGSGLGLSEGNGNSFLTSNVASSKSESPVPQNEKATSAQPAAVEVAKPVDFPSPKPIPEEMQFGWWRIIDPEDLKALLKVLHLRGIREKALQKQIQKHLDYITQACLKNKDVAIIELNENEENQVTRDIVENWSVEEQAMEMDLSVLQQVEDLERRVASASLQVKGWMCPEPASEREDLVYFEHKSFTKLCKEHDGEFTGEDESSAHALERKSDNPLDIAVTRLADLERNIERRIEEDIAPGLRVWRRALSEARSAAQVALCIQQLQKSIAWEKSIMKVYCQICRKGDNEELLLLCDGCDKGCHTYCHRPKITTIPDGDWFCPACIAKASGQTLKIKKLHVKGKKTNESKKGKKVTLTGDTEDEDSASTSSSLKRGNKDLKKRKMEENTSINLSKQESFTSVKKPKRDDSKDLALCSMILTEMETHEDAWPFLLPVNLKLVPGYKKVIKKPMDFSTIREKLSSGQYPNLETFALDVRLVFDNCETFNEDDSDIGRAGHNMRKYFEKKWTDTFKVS

| SMILES | Potency | activity change, negative = inhibition |
| --- | --- | --- |
| S=C(NCC1CCCO1)NC1CCCCC1 (centres undefined) | inconclusive: 100 µM [inhibitor, partial curve, poor fit] |  |
| O=C(COC(=O)CNC(=O)c1ccc(Cl)cc1Cl)NCc1ccco1 |  | inactive: 5.78% |
| COCCN(Cc1ccccc1)C(=O)c1cccc(S(=O)(=O)N2CCN(c3ccccc3)CC2)c1 | inconclusive: 89.1 µM [inhibitor, single point] |  |
| CC(C)NC(=S)NN=C1CCCCCCCCCCC1 | active: 35.5 µM |  |
| CCCCN1CCCc2cc(CN(CCCN3CCOCC3)C(=O)Nc3ccc(CC)cc3)ccc21 | inconclusive: 2.51 µM [inhibitor, partial curve, poor fit] |  |
| COc1ccc(-c2[nH]nc3oc(=O)cc(C)c23)cc1 | inconclusive: 89.1 µM [inhibitor, single point] |  |
| O=C(CNC(=O)c1ccc2ccccc2c1)Nc1ncccc1O | active: 50.1 µM |  |
| CC(NCc1cccc(S(=O)(=O)N(C)C)c1)c1ccc(F)cc1 (centres undefined) | active: 50.1 µM |  |
| CCc1ccc(NC(=O)C2=C(C)C(=O)OC23CCCCC3)cc1 | inconclusive: 89.1 µM [inhibitor, single point] |  |
| Brc1ccc2ncnc(Nc3ccc(N4CCOCC4)cc3)c2c1 | active: 44.7 µM |  |
| Cc1cc(C)c(S(=O)(=O)N2CCN(C(=O)N(C)C)CC2)c(C)c1 | inconclusive: 70.8 µM [inhibitor, single point] |  |
| COc1ccc(C(CC(=O)c2ccc(O)cc2)S(=O)(=O)c2ccc(C)cc2)cc1 (centres undefined) | inconclusive: 100 µM [inhibitor, single point] |  |
| O=C(N/N=C/c1cc(Br)cc([N+](=O)[O-])c1O)c1ccc(NC(=O)c2ccc(F)cc2)cc1 | active: 12.6 µM |  |
| Cc1cccc(-n2c(O)c(C=NCc3ccccn3)c3ccccc3c2=O)c1 | inconclusive: 89.1 µM [inhibitor, single point] |  |
| O=C(O)CCN1CCc2ccccc21 | inconclusive: 89.1 µM [inhibitor, single point] |  |
| COc1ccc(OC)c(NC(=O)Cn2c(=O)n(Cc3ccco3)c(=O)c3cc(OC)c(OC)cc32)c1 | inconclusive: 89.1 µM [inhibitor, single point] |  |
| O=C(c1cc(C2CC2)on1)N1CCN(c2ccccc2)CC1 | inconclusive: 89.1 µM [inhibitor, single point] |  |
| N#Cc1c(/N=C/N2CCOCC2)sc2c1CCCCC2 |  | inactive: -31.3% |
| Cc1cc(C)cc(-n2c(SCC(=O)Nc3cccc(F)c3)nc3c([nH]c4ccccc43)c2=O)c1 |  | inactive: -0.0448% |
| Cc1onc(-c2ccccc2)c1C(=O)NCCCc1ccccc1 |  | inactive: 20.7% |
| Cc1ccc(Cl)cc1N1CCN(S(=O)(=O)c2c(C(=O)N3CCOCC3)c(C)n(C)c2C)CC1 | inconclusive: 50.1 µM [inhibitor, partial curve] |  |
| N#Cc1ccc(C(=O)OCC(=O)Nc2ccc(S(N)(=O)=O)cc2)cc1 | inconclusive: 100 µM [inhibitor, single point] |  |

| SMILES | Potency | activity change, negative = inhibition |
| --- | --- | --- |
| CCOc1cc(/C=N/Nc2ccc(C(=O)O)cc2)ccc1OC(=O)c1ccccc1C | inconclusive: 44.7 µM [inhibitor, partial curve] |  |
| Cc1ccc(NC(=O)CN2C(=O)C(c3ccc(C(C)(C)C)cc3)=NC2(C)C)cc1 |  | inactive: 2.28% |
| O=[N+]([O-])c1cc(-c2nc(-c3ccccc3)no2)ccc1NCc1cccnc1 | inconclusive: 79.4 µM [inhibitor, single point] |  |
| COC(=O)CC1SC(=O)NC1=Nc1ccc(O)cc1 (centres undefined) | inconclusive: 3.55 µM [inhibitor, single point] |  |
| COc1ccc(N(CC(=O)Nc2cccc3ccccc23)S(C)(=O)=O)cc1 | inconclusive: 79.4 µM [inhibitor, single point] |  |
| COC(=O)/C(=N/Nc1cccc(C)c1)N1CCCc2ccccc21 | inconclusive: 44.7 µM [inhibitor, partial curve] |  |
| Cc1ccc(N2CCN(C(=S)c3ccc(-c4cccc([N+](=O)[O-])c4)o3)CC2)cc1 | inconclusive: 5.62 µM [inhibitor, partial curve] |  |
| CN(C)CCCN(C(=O)c1ccc(S(=O)(=O)N2CCCCCC2)cc1)c1nc2c(F)cc(F)cc2s1 | inconclusive: 79.4 µM [inhibitor, single point] |  |
| O=c1cc(O)c2c(=O)n(-c3ccccc3)c3c(c2o1)CCCCCC3 | active: 50.1 µM |  |
| CCN1CCN(Cc2ccc(NC(=O)c3cc(NC(=O)C4=NN(c5ccccc5)C(=O)C4)cc(OC)c3)cc2C(F)(F)F)CC1 | inconclusive: 89.1 µM [inhibitor, single point] |  |
| COC(=O)c1sc2nc3c(cc2c1N)C(=O)CC(C)(C)C3 |  | inactive: -3.16% |
| N=c1c[n+](N2CCOCC2)[n-]o1 | active: 50.1 µM |  |
| CCOc1ccc(-c2cnc(NCc3cccc(Cl)c3)n2C)cc1 | inconclusive: 56.2 µM [inhibitor, partial curve] |  |
| O=C(N/N=C\c1c(O)ccc2ccccc12)c1cncc(Br)c1 | active: 35.5 µM |  |
| N=C1/C(=C\c2ccc(SCc3ccccc3)o2)C(=O)N=C2SC(CC(=O)N3CCOCC3)=NN12 | active: 44.7 µM |  |
| Cc1cc(C)n(-c2nc(C(=O)O)cs2)n1 | inconclusive: 89.1 µM [inhibitor, single point] |  |
| Cc1cccc2sc(NC(=O)C3=NN(c4ccccc4)C(=O)CC3)nc12 |  | inactive: -2.72% |
| O=C(O)COc1ccccc1/C=N/NC(=O)CNC(=O)c1ccc(F)cc1 | inconclusive: 89.1 µM [inhibitor, single point] |  |
| C/C(=C\c1ccccc1F)C1Nc2cccc3cccc(c23)N1 | inconclusive: 79.4 µM [inhibitor, single point] |  |
| CC(=O)c1ccc(NS(=O)(=O)c2ccc3[nH]c4c(c3c2)CCCCCC4)cc1 | inconclusive: 22.4 µM [inhibitor, full curve] |  |
| Cc1ccc(C)c(Cn2nnc(C(=O)NCc3ccccc3)c2N)c1 |  | inactive: -18.2% |
| CN1CCN(CCCN2c3ccccc3Sc3ccc(Cl)cc32)CC1 | active: 50.1 µM and active: 39.8 µM and active: 20 µM |  |
